In PubChem BioAssay AID463173 (ICCB-Longwood Screening Facility, Harvard Medical School, 2010):
In all, about 52,000 compounds went through this assay and about 1,700 (3.3%) were called active. Rule as the data show it: active = survival mostly below about 52% (no sharp cut-off); inactive = mostly above about 56%. The list shows a part of the results.

tested on: Wild type; assay: growth inhibition of S. aureus wild type versus tarO mutant, primary screen, teichoic acid synthesis inhibitors, RN4220, OD600 (AID 463173); conditions: S. aureus RN4220 wild type/DeltatarO growth, OD600, 18 h, hits give low values, screened at 18.75 µg/mL (by protocol)

Row | SMILES | survival
1 | CCCNC(=O)NC1CC(C)(C)NC(C)(C)C1 | inactive: 116%
2 | CCOC(=O)C1CCN(c2cc3c(cc2NC(=O)c2ccc(OC)c(OC)c2)n(C)c(=O)n3C)CC1 | inactive: 81%
3 | CC1CCCCN1S(=O)(=O)c1ccc(F)c(C(=O)Nc2ccccc2C(F)(F)F)c1 (stereo not drawn) | inactive: 69%
4 | Cc1cn2c(=O)cc(COc3cc(C)c(Cl)c(C)c3)nc2s1 | inactive: 130%
5 | CCC(C)NC(=O)Cn1c(=O)n(CCCC(=O)NCc2ccc(C)cc2)c(=O)c2ccccc21 (stereo not drawn) | inactive: 74%
6 | CCOc1ccc(NC(=O)CN(c2ccccc2OCC)S(=O)(=O)c2ccccc2)cc1 | inactive: 75%
7 | CCOc1cc2sc(N3CCC(C(=O)Nc4ccc(C(C)C)cc4)CC3)nc2cc1Br | inactive: 81%
8 | C=CCSc1nsc(N)n1 | inactive: 100%
9 | Cc1cccc(CNC(=O)Cc2csc3ccccc23)c1 | inactive: 116%
10 | CCOc1cc(/C=C2\SC(=S)N(CCCC(=O)O)C2=O)ccc1O | inactive: 85%
11 | COc1ccc(S(=O)(=O)N2CCN(Cc3nc4ccc(C)cc4o3)CC2)cc1OC | inactive: 82%
12 | Cc1cc(Cl)ccc1NS(=O)(=O)c1ccc2c(c1)CCN2S(C)(=O)=O | inactive: 80%
13 | Cc1cc(=O)n(Cc2cccc(Br)c2)c2c1c(C)nn2-c1ccccc1 | inactive: 76%
14 | CC(C)(C)Sc1cc(C(=O)O)sc1C(=O)O | inactive: 106%
15 | Cc1ccc(Nc2cc(=O)[nH]c(=O)[nH]2)cc1C | inactive: 88%
16 | COc1cccc(C(=O)N2CC(=O)Nc3ccc(C)cc3C2c2ccc(F)cc2)c1OC (stereo not drawn) | inactive: 140%
17 | COc1ccc(NC(=O)CC2C(=O)N(c3ccc(OC)cc3)C(=O)N2C2CCCCC2)cc1 (stereo not drawn) | inactive: 90%
18 | Cc1c(Cl)cccc1-n1c(SCC(=O)NCc2ccccc2)nc2n[nH]c(C)c2c1=N | inactive: 134%
19 | Cc1ccc(C(=O)N2c3ncnn3C3(CCCCC3)[C@@H]3CCCC[C@@H]32)cc1 | inactive: 81%
20 | COc1cccc(OCC(=N)N)c1 | inactive: 123%

Row | SMILES | survival
21 | COc1ccc(Cl)cc1NC(=O)CSc1nnc(C)n2c1cc1sccc12 | inactive: 70%
22 | CCCOc1ccc(CNC(=O)C(C)n2nc(C)n3c(cc4occc43)c2=O)cc1 (stereo not drawn) | inactive: 68%
23 | COc1ccc(OC)c(CNC(=O)CCc2c(C)nc3c(c2C)c(=O)n(C)c(=O)n3C)c1 | inactive: 69%
24 | Cc1ccc2oc(=O)c(-c3nc4ccc(C)cc4[nH]3)cc2c1 | inactive: 124%
25 | CCC1CCCCN1S(=O)(=O)c1ccc(NC(=O)c2nc(SC)ncc2Cl)cc1 (stereo not drawn) | inactive: 81%
26 | CCc1ccccc1NS(=O)(=O)c1ccc(-c2coc(C)n2)cc1 | inactive: 138%
27 | Cc1oc2ncnc(N3CCCCC3)c2c1C(=O)Nc1cccc(Cl)c1C | inactive: 120%
28 | Cc1nc2cc(-c3ccccc3)nn2c(C)c1CCC(=O)NCCc1ccccc1 | inactive: 88%
29 | Cn1c2c(c(=O)n(C)c1=O)C(c1cc(Br)ccc1F)CC(=O)N2 (stereo not drawn) | inactive: 78%
30 | Cc1cccc(C)c1NC(=O)c1c(C)oc2c1C1=NCCN1C=N2 | inactive: 82%
31 | CCCOCc1cc(CN2CCN(c3cccc(Cl)c3)CC2)c(O)c2ncccc12 | inactive: 84%
32 | COc1ccc(CC(=O)Nc2ccc(-c3nc4ccccc4s3)cc2Cl)cc1OC | inactive: 65%
33 | COc1ccc(Nc2cc(C(=O)NCCCN(C)c3ccccc3)c3ccccc3n2)c(OC)c1 | inactive: 72%
34 | Cc1ccc2[nH]c(CSc3nnc(NC(=O)COc4ccccc4C)s3)cc(=O)c2c1 | inactive: 127%
35 | COC(=O)c1ccc(NC(=O)c2cc(S(=O)(=O)N3CCC(C)CC3)cn2C)cc1 | inactive: 131%
36 | CCOC(=O)c1ccc(Nc2nc(N)c3cc(OC)c(OC)cc3n2)cc1 | inactive: 70%
37 | Cc1cccc(CCNC(=O)c2ccc3c(c2)nc2n3CCOC2)c1 | inactive: 60%
38 | Cn1c(=O)n(C)c2cc(S(=O)(=O)N3CCCCC3)ccc21 | inactive: 111%
39 | CCn1cc(C(=O)NCCCN2CCC(C)CC2)c(=O)c2cc(S(=O)(=O)N(C)C3CCCCC3)ccc21 | inactive: 86%
40 | Cc1nn(C)c2c1c(-c1ccccc1)cc(=O)n2C(C)C(=O)NCCc1ccc(Cl)cc1 (stereo not drawn) | inactive: 78%

Row | SMILES | survival
41 | COc1ccc(S(=O)(=O)NCC(c2ccco2)N2CCN(c3ccccc3F)CC2)cc1OC (stereo not drawn) | inactive: 69%
42 | CC(C)c1nc2ccc(C(=O)NCc3ccc(F)cc3)cc2o1 | inactive: 77%
43 | COc1ccc(-c2ccc3c(N)c(C(=O)Nc4ccc(C)cc4C)sc3n2)cc1OC | inactive: 89%
44 | CCc1cccc(NC(=O)C2CCCN2S(=O)(=O)c2ccc3c(c2)n(C)c(=O)c(=O)n3C)c1 (stereo not drawn) | inactive: 84%
45 | CC1CCN(C(=O)c2ccccc2NC(=O)c2nsc3ccccc23)CC1 | inactive: 136%
46 | CCOc1ccc(-c2cc(NC(=O)c3c(F)cccc3F)c(C(=O)OC)s2)cc1 | inactive: 65%
47 | COc1ccccc1N1CCN(C(=O)c2nc(-c3ccc(C)cc3)n3c2CCCCC3)CC1 | inactive: 85%
48 | COc1ccc(CNC(=O)CCc2c(C)nn(-c3ccc(N4CCCC4)nn3)c2C)c(OC)c1 | inactive: 71%
49 | COCCn1c(SCc2ccncc2)nc2ccccc2c1=O | inactive: 101%
50 | COc1ccc(-n2c(SCC(=O)Nc3cc(C)cc(C)c3)nc3c(oc4ccccc43)c2=O)cc1 | inactive: 95%
51 | COC(=O)c1c(NC(=O)C(C)Oc2ccc(Cl)cc2Cl)sc2c1CCCC2 (stereo not drawn) | inactive: 57%
52 | COc1ccc(NC(=O)c2cc(S(=O)(=O)N3CCCCC3)c[nH]2)cc1Cl | inactive: 85%
53 | Cc1ccc(NC(=O)c2c(C)oc3ccc(O)c(CN4CCCCC4)c23)cc1 | inactive: 86%
54 | Cc1cc(NC(=O)CC(C)C)cc(-c2nc3ncccc3o2)c1O | inactive: 69%
55 | Cc1cc(C)c(/C=C/c2onc(C)c2S(=O)(=O)N2CCC(C(=O)NCC(C)c3ccccc3)CC2)c(C)c1 (stereo not drawn) | inactive: 115%
56 | O=C(CCS(=O)(=O)c1cc2c3c(c1)CCN3C(=O)CC2)NCc1ccc(Cl)cc1 | inactive: 78%
57 | COc1ccc(/C=C/c2nc(C#N)c(NC3CCCCC3)o2)cc1OC | inactive: 71%
58 | Cc1ccc(CNC(=O)CCc2c(C)nn(-c3ccc(N4CCCC4)nn3)c2C)cc1 | inactive: 121%
